Results are given in words; binding and its absence hold for the method and conditions named. For part of these data: Binding seen in cells or lysates may run through a third protein. Some entries that bind do so weakly or less than the wild type. Tags and fused reporters may be left off the sequences shown. Each block holds one binder with its values, some of them ahead of it.
How the values were obtained:
[1] = biological target: T1, BD-PRR5 (PSEUDO-RESPONSE REGULATOR5, full length, fused to the Gal4 DNA-binding domain) (Arabidopsis thaliana) (UniProt Q6LA42); assay: two-hybrid; Gal4 system; baits in pGBKT7 (BD), preys in pGADT7 (AD), cotransformed into yeast AH109; growth on dropout medium lacking Leu, Trp, His and Ade for 4 days
T1 sequence: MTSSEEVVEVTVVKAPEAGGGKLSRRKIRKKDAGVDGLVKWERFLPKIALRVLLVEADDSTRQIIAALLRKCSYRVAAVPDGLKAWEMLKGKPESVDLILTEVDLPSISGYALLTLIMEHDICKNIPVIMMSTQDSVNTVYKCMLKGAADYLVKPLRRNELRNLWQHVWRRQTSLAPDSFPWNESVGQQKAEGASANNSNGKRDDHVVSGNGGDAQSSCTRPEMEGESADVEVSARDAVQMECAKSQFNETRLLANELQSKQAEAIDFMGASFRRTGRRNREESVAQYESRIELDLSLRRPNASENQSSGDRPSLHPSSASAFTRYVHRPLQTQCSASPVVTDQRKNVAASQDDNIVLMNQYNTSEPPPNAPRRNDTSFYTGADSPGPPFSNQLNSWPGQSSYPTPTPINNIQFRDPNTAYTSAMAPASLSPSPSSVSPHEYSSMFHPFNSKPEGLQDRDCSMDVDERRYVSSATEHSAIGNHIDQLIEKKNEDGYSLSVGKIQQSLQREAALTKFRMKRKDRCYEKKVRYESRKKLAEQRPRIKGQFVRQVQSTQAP

[2] = biological target: T2, PRR5-nYFP (Arabidopsis thaliana) (UniProt Q6LA42); assay: split reporter; BiFC with cYFP and nYFP fusions transiently coexpressed in N. benthamiana leaf cells; YFP fluorescence read by confocal microscopy 40-52 h after infiltration
T2 sequence: T1 sequence

[3] = biological target: T3, PRR7-nYFP (Arabidopsis thaliana) (UniProt Q93WK5); assay: as above
T3 sequence: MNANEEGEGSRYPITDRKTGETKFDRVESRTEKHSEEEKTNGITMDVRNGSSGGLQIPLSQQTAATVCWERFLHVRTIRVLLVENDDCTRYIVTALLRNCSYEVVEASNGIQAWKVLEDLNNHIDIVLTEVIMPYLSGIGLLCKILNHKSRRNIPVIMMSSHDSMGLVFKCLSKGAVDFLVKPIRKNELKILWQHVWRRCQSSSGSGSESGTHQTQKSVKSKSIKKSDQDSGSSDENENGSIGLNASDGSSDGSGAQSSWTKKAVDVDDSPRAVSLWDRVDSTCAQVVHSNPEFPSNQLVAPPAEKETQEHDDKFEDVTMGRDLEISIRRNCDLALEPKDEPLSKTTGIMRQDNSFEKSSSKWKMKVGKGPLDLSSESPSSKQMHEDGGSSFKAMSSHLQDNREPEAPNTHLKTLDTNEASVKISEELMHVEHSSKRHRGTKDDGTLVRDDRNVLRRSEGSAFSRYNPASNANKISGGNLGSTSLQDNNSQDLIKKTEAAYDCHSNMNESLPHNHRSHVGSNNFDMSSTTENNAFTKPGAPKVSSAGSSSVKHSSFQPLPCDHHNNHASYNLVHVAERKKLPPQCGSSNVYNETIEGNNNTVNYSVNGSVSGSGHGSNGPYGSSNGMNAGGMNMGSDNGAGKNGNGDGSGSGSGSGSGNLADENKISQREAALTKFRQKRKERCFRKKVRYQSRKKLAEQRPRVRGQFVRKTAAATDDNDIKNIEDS

[4] = biological target: T4, BD-PRR7 (PSEUDO-RESPONSE REGULATOR7, full length, fused to the Gal4 DNA-binding domain) (Arabidopsis thaliana) (UniProt Q93WK5); assay: two-hybrid; Gal4 system; baits in pGBKT7 (BD), preys in pGADT7 (AD), cotransformed into yeast AH109; growth on dropout medium lacking Leu, Trp, His and Ade for 4 days
T4 sequence: T3 sequence

binding [1]: binds
B1: AD-ABI5^350-442 (domain or fragment, UniProt Q9SJN0 350-442)
chain: PVEKVVERRQRRMIKNRESAARSRARKQAYTVELEAELNQLKEENAQLKHALAELERKRKQQYFESLKSRAQPKLPKSNGRLRTLMRNPSCPL

binding [1]: no binding
B2: AD-ABI5^1-164 (domain or fragment, UniProt Q9SJN0 1-164)
chain: MVTRETKLTSEREVESSMAQARHNGGGGGENHPFTSLGRQSSIYSLTLDEFQHALCENGKNFGSMNMDEFLVSIWNAEENNNNQQQAAAAAGSHSVPANHNGFNNNNNNGGEGGVGVFSGGSRGNEDANNKRGIANESSLPRQGSLTLPAPLCRKTVDEVWSEI

binding [2]: no binding | binding [3]: no binding
B3: ABI5^1-164-cYFP (domain or fragment, UniProt Q9SJN0 1-164)
chain: B2 chain

binding [1]: binds
B4: AD-ABI5^165-442 (domain or fragment, UniProt Q9SJN0 165-442)
chain: HRGGGSGNGGDSNGRSSSSNGQNNAQNGGETAARQPTFGEMTLEDFLVKAGVVREHPTNPKPNPNPNQNQNPSSVIPAAAQQQLYGVFQGTGDPSFPGQAMGVGDPSGYAKRTGGGGYQQAPPVQAGVCYGGGVGFGAGGQQMGMVGPLSPVSSDGLGHGQVDNIGGQYGVDMGGLRGRKRVVDGPVEKVVERRQRRMIKNRESAARSRARKQAYTVELEAELNQLKEENAQLKHALAELERKRKQQYFESLKSRAQPKLPKSNGRLRTLMRNPSCPL

binding [2]: binds | binding [3]: binds
B5: ABI5-cYFP (protein, UniProt Q9SJN0 1-442)
chain: MVTRETKLTSEREVESSMAQARHNGGGGGENHPFTSLGRQSSIYSLTLDEFQHALCENGKNFGSMNMDEFLVSIWNAEENNNNQQQAAAAAGSHSVPANHNGFNNNNNNGGEGGVGVFSGGSRGNEDANNKRGIANESSLPRQGSLTLPAPLCRKTVDEVWSEIHRGGGSGNGGDSNGRSSSSNGQNNAQNGGETAARQPTFGEMTLEDFLVKAGVVREHPTNPKPNPNPNQNQNPSSVIPAAAQQQLYGVFQGTGDPSFPGQAMGVGDPSGYAKRTGGGGYQQAPPVQAGVCYGGGVGFGAGGQQMGMVGPLSPVSSDGLGHGQVDNIGGQYGVDMGGLRGRKRVVDGPVEKVVERRQRRMIKNRESAARSRARKQAYTVELEAELNQLKEENAQLKHALAELERKRKQQYFESLKSRAQPKLPKSNGRLRTLMRNPSCPL

binding [1]: no binding | binding [4]: no binding
B6: AD-ABI3 (full length, fused to the Gal4 activation domain) (protein, UniProt Q01593 1-720)
chain: MKSLHVAANAGDLAEDCGILGGDADDTVLMDGIDEVGREIWLDDHGGDNNHVHGHQDDDLIVHHDPSIFYGDLPTLPDFPCMSSSSSSSTSPAPVNAIVSSASSSSAASSSTSSAASWAILRSDGEDPTPNQNQYASGNCDDSSGALQSTASMEIPLDSSQGFGCGEGGGDCIDMMETFGYMDLLDSNEFFDTSAIFSQDDDTQNPNLMDQTLERQEDQVVVPMMENNSGGDMQMMNSSLEQDDDLAAVFLEWLKNNKETVSAEDLRKVKIKKATIESAARRLGGGKEAMKQLLKLILEWVQTNHLQRRRTTTTTTNLSYQQSFQQDPFQNPNPNNNNLIPPSDQTCFSPSTWVPPPPQQQAFVSDPGFGYMPAPNYPPQPEFLPLLESPPSWPPPPQSGPMPHQQFPMPPTSQYNQFGDPTGFNGYNMNPYQYPYVPAGQMRDQRLLRLCSSATKEARKKRMARQRRFLSHHHRHNNNNNNNNNNQQNQTQIGETCAAVAPQLNPVATTATGGTWMYWPNVPAVPPQLPPVMETQLPTMDRAGSASAMPRQQVVPDRRQGWKPEKNLRFLLQKVLKQSDVGNLGRIVLPKKEAETHLPELEARDGISLAMEDIGTSRVWNMRYRFWPNNKSRMYLLENTGDFVKTNGLQEGDFIVIYSDVKCGKYLIRGVKVRQPSGQKPEAPPSSAATKRQNKSQRNINNNSPSANVVVASPTSQTVK

Reference: publication PMC8462813
